The values that follow come from PubChem BioAssay AID1508624 (National Center for Advancing Translational Sciences (NCATS), 2021).

Structures are written as SMILES. The campaign covered roughly 48,000 compounds. About 120 (0.25%) were called active. About 4% were inconclusive and are not listed. The call rests on the fitted dose curve; in most records, active means well fitted activation curve with a large enough effect; inconclusive means small, poorly fitted or top-dose-only effect, or another doubt; inactive means no such curve, though single readings can be large or run the other way. The list shows a part of the results.

The assay can be described thus: Primary qHTS for Identification of Small Molecule Activators of Huntingtin-Antisense Promoter Activity. Further: nearly all actives have a fitted effect of over 55% in size. The conditions noted are these: HEK293 HTT-AS promoter firefly luciferase reporter, 24 h; series mostly up to 57.5 µM; activity change, positive = activation: at the top concentration. The gist of the method: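 HEK293 Fluc reporter, 2,500 cells/well, 24 h pre-culture; cpds up to 57.5 uM final, 24 h 37 degrees C; Dual-Glo, 10 min RT; normalized vehicle = 0%, zero RLU = -100%.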
For orientation: In qHTS, concentration-response curves come from the screen itself.
Turning to `COc1ccc(NC(=O)Cn2c(=O)n(-c3ccc(C)cc3)c(=O)c3c2c2cc(C)ccc2n3C)cc1`, the “activity change, positive = activation” value was inactive: 2.12%. The same measure for `O=C(CN1C(=O)CCn2nc(-c3ccccc3)cc21)NCc1ccccc1`: inactive: -11.1%. For the molecule `COc1cccc(CNC(=O)C(=O)NCC(c2ccco2)S(=O)(=O)c2ccccc2)c1` (stereo not given), the “activity change, positive = activation” value is inactive: -37.3%. The same measure for `COc1ccc(C2CC(=O)c3cc(-c4nc(-c5cccc([N+](=O)[O-])c5)cs4)c(=O)n(-c4cccc(C)c4)c3C2)cc1` (stereo not given): inactive: -3.81%; for `Cc1ccc(NC(=O)CSc2nc3ccc(NC(=O)c4ccco4)cc3s2)cc1`: inactive: -22%; for `Cc1ccc(NC(=O)CSc2nc(=O)n(Cc3ccccn3)c3c2CCC3)cc1F`: inactive: -46%. As to `COC(=O)c1c(NC(=O)Cc2coc3cc(C)cc(C)c23)sc2c1CCC2`, the “activity change, positive = activation” value is inactive: -18.5%.

Regarding `COc1cc(C(=O)NCc2ccc3c(c2)CCN3C(=O)c2ccc(Cl)cc2)cc(OC)c1OC`, the “activity change, positive = activation” value was inactive: -24.3%. Regarding `COCCNC(=O)c1c(NC(=O)c2cc(=O)c3cc(C)cc(C)c3o2)sc2c1CCCC2`, the “activity change, positive = activation” value is inactive: 0.521%. The figure for `O=C(Nc1ccccc1Cl)N1CCC2(CC1)Oc1ccccc1C(=O)N2Cc1ccc(F)cc1` is inactive: -26.8%; for `CCc1ccc(NC(=O)c2cnc3c(-c4ccccc4)c(C)nn3c2C)cc1` it is inactive: -17.9%. The figure for `CC(=O)c1ccc(NC(=O)c2ccc(-c3nc(CSc4ccc(C)cc4)c(C)o3)cc2)cc1` is inactive: -23.7%. As for `COc1cccc(Cn2c(C)c(CNCc3cccc(C)c3)c(C(=O)O)c2C)c1`, the “activity change, positive = activation” value was inactive: -20.5%. Turning to `COc1ccccc1CNC(=O)CCn1c(=O)c2ccccc2n(CC(=O)Nc2cc(Cl)ccc2C)c1=O`, the “activity change, positive = activation” value was inactive: 1.61%. The same measure for `CCOC(=O)c1ccc(N2C(=O)c3[nH]nc(-c4ccc(OC)cc4)c3C2c2cccc(O)c2)cc1` (stereo not given): inactive: -88%; for `CCc1cccc(NC(=O)CSc2ncc3c(n2)-c2cc(Cl)ccc2N(C)S3(=O)=O)c1`: inactive: -6.18%. On to `COc1ccccc1NC(=O)Cn1nnc(C(=O)NCc2cccs2)c1N`, for which the “activity change, positive = activation” value is inactive: -31.9%.

Regarding `O=c1cc(COc2ccccc2Cl)nc2scc(-c3ccccc3)n12`, the “activity change, positive = activation” value was inactive: -9.93%. Regarding `Cc1ccc(C2NC(=O)c3n[nH]c(-c4cccs4)c32)cc1` (stereo not given), the “activity change, positive = activation” value was inactive: -18.5%.

Take `Cc1ccc(Cl)cc1N1CCN(C(=O)Cn2nc(C)c3sc4ccccc4c3c2=O)CC1`: the “activity change, positive = activation” value is inactive: 12.5%.

Turning to `CCC(C)NC(=O)CCSc1nc(-c2ccc3c(c2)OCO3)cc(C(F)(F)F)n1` (stereo not given), the “activity change, positive = activation” value was inactive: -27.6%. The same measure for `COc1ccc(NC(=O)CCS(=O)(=O)c2nc(-c3ccc4c(c3)OCO4)cc(C(F)(F)F)n2)cc1OC`: inactive: -31.8%.

As for `O=C(Nc1cccc(C(=O)OCc2cc(=O)n3c4c(sc3n2)CCCC4)c1)c1cccc(F)c1`, the “activity change, positive = activation” value was inactive: -7.07%. For the molecule `C[C@]12C=CC(=O)C=C1[C@@H](F)C[C@@H]1[C@@H]2[C@@H](O)C[C@@]2(C)[C@H]1CC[C@]2(O)C(=O)CO`, the “activity change, positive = activation” value is inactive: -5.69%.

On to `CCc1ccc(S(=O)(=O)Nc2ccc3c(c2)sc(=O)n3C)cc1`, for which the “activity change, positive = activation” value was inactive: -14.6%.

Take `Cc1ccc(Cl)cc1NC(=O)CN1C=NS(=O)(=O)c2ccccc21`: the “activity change, positive = activation” value is inactive: -15.7%. The same measure for `Cc1cccc(Cn2c(=O)n(-c3cc(C)cc(C)c3)c(=O)c3oc4ccccc4c32)c1`: inactive: -18.7%; for `CCc1nn(CCCC(=O)NCc2ccccc2OC)c(=O)c2cc3occc3n12`: inactive: -8.49%. With `Cc1cc(C)c2c(n1)nn1c(C)c(CCC(=O)Nc3cccc(C)c3C)c(C)nc21`, the “activity change, positive = activation” value is inactive: 5.86%. For the molecule `Cc1ccc(Cl)cc1N1CCN(C(=O)C2CCN(S(=O)(=O)c3cn(C)cn3)CC2)CC1`, the “activity change, positive = activation” value was inactive: -9.88%. The figure for `Cc1cccc(N2CCN(CCCNC(=O)Cn3ncc4c([nH]c5ccccc54)c3=O)CC2C)c1` (stereo not given) is inactive: -5.71%; for `COc1ccc(N(C)C(=O)Cn2cnc3sc(C)c(S(=O)(=O)N4CCN(c5ncccn5)CC4)c3c2=O)cc1` it is inactive: -2.07%. The same measure for `O=C(NCCS(=O)(=O)N1CCN(c2cccc(Cl)c2)CC1)C(c1ccccc1)c1ccccc1`: inactive: -10.5%; for `CCc1nn(CC(=O)NCc2ccccc2)c(=O)c2cccn12`: inactive: -1.96%. Regarding `CCOCCCn1c(=N)c(C(=O)NC2CCCCC2)cc2c(=O)n3ccccc3nc21`, the “activity change, positive = activation” value was inactive: -5.45%. As to `O=C(CSc1nc2ccccc2nc1Cc1ccccc1)N1CCc2ccccc21`, the “activity change, positive = activation” value was inactive: -2.91%. The figure for `Cc1cccc(-c2nc3c4ccccc4nc(N4CCN(c5cccc(Cl)c5)CC4)n3n2)c1` is inactive: 11.5%. As for `COc1ccc(-c2c3c(nc4sc(C(=O)Nc5cccc(OC)c5)c(N)c24)CC(C)(C)CC3=O)cc1`, the “activity change, positive = activation” value is inactive: 12.6%. The same measure for `CCc1ccccc1NC(=O)Cn1c(=O)n(CCc2ccccc2)c(=O)c2sc3ccccc3c21`: inactive: 0.604%; for `CC1(O)CC(c2nc(-c3ccc4ccc(-c5ccccc5)nc4c3)c3c(N)nccn23)C1` (stereo not given): inactive: -21.3%; for `NC(=O)NC(=O)Cc1ccccc1`: inactive: -7.61%. In the case of `COc1ccc(CCNC(=O)c2ccc(Cn3c(=O)c4cccn4c4cccnc43)cc2)cc1OC`, the “activity change, positive = activation” value is inactive: -24.2%. The same measure for `Cc1cc(C(=O)N2CCN(c3ccccc3F)CC2)c2c(C)nn(-c3ccccc3)c2n1`: inactive: -33.6%. The same measure for `Cc1cc(C)n2nc(CNS(=O)(=O)c3cccc(Cl)c3)nc2n1`: inactive: -5.68%; for `CCCCN(C)C(=O)CSc1c2c(nc3ccc(Cl)cc13)CCCC2`: inactive: -17%; for `CCC(C)NC(=O)c1ccc(CNS(=O)(=O)c2ccc3c(c2)C(C)(C)C(=O)N3C)cc1` (stereo not given): inactive: -15.8%. In the case of `Cc1cc(C)c2oc(-c3cccc(NC(=O)c4cccc(F)c4)c3C)nc2c1`, the “activity change, positive = activation” value is inactive: -10.7%. The figure for `CCOCCCNC(=O)c1ccc2c(=O)n(CCc3ccccc3)c(=O)[nH]c2c1` is inactive: 8.56%; for `CCc1ccc2oc(-c3cc(NC(=O)c4cc(OC)c(OC)c(OC)c4)ccc3O)nc2c1` it is inactive: 15%; for `COc1cccc(N2CCN(C(=O)c3cnn(-c4ccccc4Cl)c3C3CCN(C(=O)OC(C)(C)C)CC3)CC2)c1` it is inactive: -21.8%.

Consider `CCCCc1ccc(NS(=O)(=O)c2cc3c4c(c2)CC(=O)N4CCC3)cc1`, for which the “activity change, positive = activation” value was inactive: -35.4%. As for `COc1cc(Nc2ncc(F)c(Nc3ccc4c(n3)N(COP(=O)(O)O)C(=O)C(C)(C)O4)n2)cc(OC)c1OC`, the “activity change, positive = activation” value was inactive: -26.2%.

In the case of `COc1cccc(NC(=O)C2CCC(CNS(=O)(=O)c3csc(C(N)=O)c3)CC2)c1` (stereo not given), the “activity change, positive = activation” value is inactive: 10.3%. The figure for `CC(=O)c1ccc(NC(=O)CSc2nc(=O)n(Cc3ccccn3)c3c2CCC3)cc1` is inactive: -22.9%; for `COc1cccc(-c2cn3c(n2)sc2cc(C(=O)NC4CCCCC4)ccc23)c1` it is inactive: -15.5%. The same measure for `CCc1ccccc1Nc1nn2c(=O)c3ccc(C(=O)NC(C)C)cc3nc2s1`: inactive: -15.1%. Take `CCN(CCCNC(=O)c1cc2c(=O)n(C)c3ccccc3c2s1)c1ccccc1`: the “activity change, positive = activation” value was inactive: -15.6%.

With `COc1cc(NC(=O)C2CCN(c3cnccn3)CC2)cc(OC)c1`, the “activity change, positive = activation” value is inactive: -5.38%. The figure for `O=C(Cn1c(=O)n(Cc2ccco2)c(=O)c2oc3ccccc3c21)Nc1ccccc1` is inactive: -13%. For the molecule `COc1ccc(-c2cc(=O)c3c(O)cc(O[C@@H]4O[C@H](CO[C@@H]5O[C@@H](C)[C@H](O)[C@@H](O)[C@H]5O)[C@@H](O)[C@H](O)[C@H]4O)cc3o2)cc1O`, the “activity change, positive = activation” value is inactive: -1.48%. On to `COc1ccccc1N1CCN(C(=O)C2CCN(S(=O)(=O)c3cn(C)cn3)CC2)CC1`, for which the “activity change, positive = activation” value is inactive: -0.303%. The same measure for `COc1ccccc1NC(=O)CN1C(=O)C(c2ccc(F)cc2)=NC12CCCCC2`: inactive: -26.5%; for `COc1ccc(C(CNC(=O)c2oc3cc(C)c(C)cc3c2C)N2CCCCC2)cc1` (stereo not given): inactive: 6.25%. On to `Cc1ccc(Nc2nc(N)nc(CSc3nc4ccccc4s3)n2)cc1`, for which the “activity change, positive = activation” value is inactive: -21.2%. The figure for `CCn1cc(C(=O)N2CCN(c3ccccc3)CC2)c(=O)c2cc(S(=O)(=O)N(C)C)ccc21` is inactive: 15.2% [at 11.5 µM, percent change from vehicle, -100% = no light].

As to `Cc1c2cnn(CC(=O)NCc3ccc(Cl)cc3)c(=O)c2c(C)n1Cc1ccc(F)cc1`, the “activity change, positive = activation” value is inactive: -24.3%. The figure for `O=C(Cc1ccc(F)cc1)NCCc1csc2nc(-c3ccccc3F)nn12` is inactive: -10.9%; for `COc1ccc(CCNS(=O)(=O)c2c(C)nc3sccn3c2=O)cc1OC` it is inactive: -13.4%; for `Cc1ccccc1Nc1nn2c(=O)c3ccc(C(=O)NCc4cccs4)cc3nc2s1` it is inactive: -20.6%. The same measure for `Cc1cc(NS(=O)(=O)c2ccc(NC(=O)COc3ccccc3Br)cc2)no1`: inactive: -9.85%; for `Cc1cc(C)cc(NC(=O)CSc2ccc(-c3cccs3)nn2)c1`: inactive: -30.6%.

Regarding `COc1ccc(CCNc2ncnc3c2cnn3-c2ccc(C)c(Cl)c2)cc1`, the “activity change, positive = activation” value is inactive: 8.1%. The same measure for `Cc1ccc(NS(=O)(=O)c2ccc3oc(=O)c4ncn(C)c4c3c2)cc1C`: inactive: -13.1%; for `O=C(CCC1N=C2c3ccccc3N=C(SCc3ccc(Cl)cc3)N2C1=O)NCc1cccs1` (stereo not given): inactive: 3.77%. As for `COc1ccc(OCC(O)Cn2c(=N)n(CCN3CCCCC3)c3ccccc32)cc1` (stereo not given), the “activity change, positive = activation” value was inactive: -12.3%. For `O=C(CCc1ccccc1)NC1CC(=O)N(c2cccc(F)c2)C1` (stereo not given), the “activity change, positive = activation” value was inactive: -0.903%. The figure for `COc1ccccc1C(=O)n1nc(-c2ccccc2)nc1NCc1ccc(Cl)cc1` is inactive: -1.58%; for `CCC(=O)N1CCc2cc(S(=O)(=O)NC(CC(C)C)C(=O)Nc3cccc(C)c3C)ccc21` (stereo not given) it is inactive: 0.481%. Take `CN(C)c1ccc(CNC(=O)CN2C(=O)C3CCCCN3c3ccc(C(=O)N4CCCC4)cc32)cc1` (stereo not given): the “activity change, positive = activation” value was inactive: -15.4%.

Consider `Cc1ccc(S(=O)(=O)C(CNC(=O)C(=O)NCCc2ccc(Cl)cc2)c2ccco2)cc1` (stereo not given), for which the “activity change, positive = activation” value is inactive: -23.5%. With `CCC(C)NC(=O)c1cc2n(n1)CCCN(Cc1ccc(C)cc1)C2=O` (stereo not given), the “activity change, positive = activation” value was inactive: -7.34%. The same measure for `Cc1ccc(N2CCN(C(=O)c3cccn4c(=O)c5ccc(Cl)cc5nc34)CC2C)cc1` (stereo not given): inactive: 2.01%; for `CCOC(=O)c1ccccc1NC(=O)N1CCC(CN2CCOCC2)CC1`: inactive: -8.84%. The same measure for `CCN1CCN(C(c2ccccc2Cl)c2sc3nc(-c4ccco4)nn3c2O)CC1` (stereo not given): inactive: -5.04%; for `CCOc1ccc(NC(=O)Cn2nc3c(cc2=O)CC(C)CC3)cc1` (stereo not given): inactive: -5.13%. For `CCOC(=O)c1[nH]c2c(c1Cc1ccccc1)C(=O)CC(c1ccccc1)C2` (stereo not given), the “activity change, positive = activation” value was inactive: -15.9%. Take `Cc1ccc(-c2noc(-c3nnn(CC(=O)Nc4ccc(C)c(Cl)c4)c3N)n2)cc1`: the “activity change, positive = activation” value was inactive: 5.87%. The figure for `CC(C)Oc1ccc(C(=O)NCC(c2ccc(N(C)C)cc2)N2CCc3ccccc32)cc1` (stereo not given) is inactive: -21.6%; for `CCOc1ccc(N(CC(=O)Nc2ccc(OC)cc2)S(=O)(=O)c2ccc(Cl)cc2)cc1` it is inactive: 1.12%; for `O=C(Nc1ccc(Br)cc1)c1cc(S(=O)(=O)NC2CCCC2)ccc1F` it is inactive: -28.3%.
